The source of these data is paper PMC4336329 (PLoS ONE, 2015).

Out of some 310,000 compounds screened, about 14,000 (4.5%) showed an effect of 50% or more. The effect is printed as a negative number. This is one part of the list.
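Further: peak tail current of the secondary pulse compared with the same well before compound.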

The target of the test is human ether-à-go-go-related gene (hERG) potassium channel (human, UniProt Q12809). In words: primary screen, population patch clamp on CHO cells stably expressing hERG.
human ether-à-go-go-related gene (hERG) potassium channel, sequence (Q12809 whole entry, looked up): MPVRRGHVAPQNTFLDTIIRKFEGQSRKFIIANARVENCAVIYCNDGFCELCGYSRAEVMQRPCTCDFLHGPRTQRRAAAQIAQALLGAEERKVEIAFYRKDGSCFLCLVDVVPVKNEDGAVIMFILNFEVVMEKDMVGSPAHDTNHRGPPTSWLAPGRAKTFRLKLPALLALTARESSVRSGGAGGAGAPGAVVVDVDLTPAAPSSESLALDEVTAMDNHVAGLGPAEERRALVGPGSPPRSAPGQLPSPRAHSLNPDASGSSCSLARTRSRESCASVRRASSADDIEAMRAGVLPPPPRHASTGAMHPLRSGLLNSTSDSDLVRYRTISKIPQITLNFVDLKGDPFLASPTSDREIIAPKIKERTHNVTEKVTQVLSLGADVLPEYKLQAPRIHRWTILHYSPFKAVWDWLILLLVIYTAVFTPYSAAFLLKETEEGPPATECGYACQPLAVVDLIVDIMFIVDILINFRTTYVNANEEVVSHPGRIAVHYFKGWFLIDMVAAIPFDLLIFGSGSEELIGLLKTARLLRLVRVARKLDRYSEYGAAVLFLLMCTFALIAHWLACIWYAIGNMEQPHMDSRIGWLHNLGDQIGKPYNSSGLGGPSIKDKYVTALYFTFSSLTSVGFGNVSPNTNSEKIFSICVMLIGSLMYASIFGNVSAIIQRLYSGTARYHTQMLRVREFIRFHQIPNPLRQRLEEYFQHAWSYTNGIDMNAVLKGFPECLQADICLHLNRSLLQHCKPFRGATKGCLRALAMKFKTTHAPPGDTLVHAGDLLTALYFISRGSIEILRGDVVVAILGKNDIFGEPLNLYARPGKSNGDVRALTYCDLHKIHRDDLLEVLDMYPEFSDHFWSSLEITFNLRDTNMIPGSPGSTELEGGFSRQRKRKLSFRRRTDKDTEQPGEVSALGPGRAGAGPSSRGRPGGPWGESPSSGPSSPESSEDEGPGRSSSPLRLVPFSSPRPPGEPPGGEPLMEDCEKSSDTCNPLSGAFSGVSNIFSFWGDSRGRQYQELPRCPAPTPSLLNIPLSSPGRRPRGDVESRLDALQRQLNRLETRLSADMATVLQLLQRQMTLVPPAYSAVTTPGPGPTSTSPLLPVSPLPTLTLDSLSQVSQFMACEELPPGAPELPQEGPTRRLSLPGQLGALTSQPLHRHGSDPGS
With `CC(=O)Nc1ccc(CC(=O)O)cc1`, the “hERG current change (%, negative = inhibition) at 10uM” value is recorded as 2.48%.

As to `CC(=O)c1c(C)[nH]c(C(=O)OCc2ccccc2)c1C`, the “hERG current change (%, negative = inhibition) at 10uM” value was -3.71%.

Turning to `COC(=O)c1ccc(NC(=O)COc2ccc(S(=O)(=O)NC(C)C)cc2)cc1`, the “hERG current change (%, negative = inhibition) at 10uM” value was 1.28%.

In the case of `CN(C)CC(C)(C)CNC(C(=O)Nc1ccc(Cl)cc1C(F)(F)F)c1ccccc1` (stereo not drawn), the “hERG current change (%, negative = inhibition) at 10uM” value is given as -76.9%.

As for `COc1ccc(Cl)cc1N1C(=O)C2CCCN2C1c1ccc(F)c(F)c1` (stereo not drawn), the “hERG current change (%, negative = inhibition) at 10uM” value is on record as -4.05%.

In the case of `COC1(OC)N=C(N)C2(C#N)C(c3ccc4c(c3)OCO4)C12C#N` (stereo not drawn), the “hERG current change (%, negative = inhibition) at 10uM” value was determined as 7.39%.

For the compound `O=C(/C=C/c1ccc(Cl)c([N+](=O)[O-])c1)NCc1cccnc1`, the “hERG current change (%, negative = inhibition) at 10uM” value was -11.3%.

As to `CCN1C(=O)/C(=C/c2ccc(OC)c(OC)c2)N=C1SCC(=O)NCc1ccco1`, the “hERG current change (%, negative = inhibition) at 10uM” value was -15.1%.

In the case of `Cc1ccc(N(Cc2ccccc2)C(=O)c2cc(S(=O)(=O)N3CCOCC3)ccc2F)cc1`, the “hERG current change (%, negative = inhibition) at 10uM” value is -10.2%.

With `Cn1c(=O)c2c(nc(Cl)n2Cc2ccncc2)n(C)c1=O`, the “hERG current change (%, negative = inhibition) at 10uM” value stood at 2.99%.

For `CCOC(=O)c1[nH]cnc1N=Nc1c(O)ccc2ccccc12`, the “hERG current change (%, negative = inhibition) at 10uM” value stood at 11.4%.

For the compound `COc1cc(CN2CCN(Cc3ccccc3C(F)(F)F)CC2)cc(OC)c1OC.O=C(O)C(=O)O`, the “hERG current change (%, negative = inhibition) at 10uM” value is reported as -8.28%.

With `CCN(CC(=O)Nc1ccc(NC(C)=O)cc1)C(=O)CSCc1c(C)noc1C`, the “hERG current change (%, negative = inhibition) at 10uM” value was 5.14%.

Turning to `CC(C)(C)SCCNC(=O)CN(c1ccc(F)c(Cl)c1)S(C)(=O)=O`, the “hERG current change (%, negative = inhibition) at 10uM” value is 9.67%.

In the case of `O=C(CCl)Nc1ccccc1C(=O)Nc1ccc2c(c1)OCO2`, the “hERG current change (%, negative = inhibition) at 10uM” value stood at 15.7%.

For the compound `COc1ccc(OC)c(NC(=O)CCNS(=O)(=O)c2ccc3c(c2)c(=O)n(C)c(=O)n3C)c1`, the “hERG current change (%, negative = inhibition) at 10uM” value is 10.7%.

On to `CC1CCc2sc(C(=O)NNC(=S)NC3CC3)cc2C1` (stereo not drawn), for which the “hERG current change (%, negative = inhibition) at 10uM” value is 26%.

Take `CC(Sc1nn(-c2ccccc2)c(=S)s1)C(=O)NCC1CCCO1` (stereo not drawn): the “hERG current change (%, negative = inhibition) at 10uM” value is reported as -13%.

Turning to `COC(=O)c1sccc1NC(=O)CC1C(=O)NCCN1C(=O)Nc1ccccc1` (stereo not drawn), the “hERG current change (%, negative = inhibition) at 10uM” value is given as -1.48%.

With `CCOC(=O)COc1c(Br)cc(/C=C2\SC(=O)N(CC(=O)N3CCCC3)C2=O)cc1OC`, the “hERG current change (%, negative = inhibition) at 10uM” value is on record as -24%.

Consider `CC1(C(=O)OCC(=O)Nc2ccc(C(N)=O)cc2)CC1(Cl)Cl` (stereo not drawn), for which the “hERG current change (%, negative = inhibition) at 10uM” value turned out to be 1.95%.

Take `COc1ccc(C(CNC(=O)COc2cc(C)c(Cl)c(C)c2)N2CCCCC2)cc1` (stereo not drawn): the “hERG current change (%, negative = inhibition) at 10uM” value is given as -20.2%.

As to `CCOC(=O)Cc1nnc(NC(=O)CSc2nncn2C)s1`, the “hERG current change (%, negative = inhibition) at 10uM” value was -5.96%.

In the case of `COc1cc(CC(=O)NCC2CCCCC2)cc(OC)c1OC`, the “hERG current change (%, negative = inhibition) at 10uM” value is given as 19.6%.
